Data on 27 molecules can be found in ChEMBL document CHEMBL4513137, “CO-ADD screening of University of Manchester (UK) compounds”.

Some of the results follow. Results with a measured potency or affinity are listed apart.

For the test, the system named is Acinetobacter baumannii. As to conditions: Concentration 32 ug.mL-1; ASSAY_TEST Inhibition of Bacterial Growth; detection method Absorption (OD600); MEDIA CAMHB; plate type 384well; NBS; CORNING #3640; time 18 hr.
Broadly, the Inhibition is the relative decrease from the control value, in per cent. As for `COc1cccc(N(C)c2cccc(OC)c2-c2ccc([N+](=O)[O-])cc2C)c1`, the Inhibition is -6.26%.
As to `O=[N+]([O-])c1ccc(-c2cccc3c2[nH]c2ccccc23)cc1`, the Inhibition is reported as -15.36%.
For the molecule `c1ccc(Nc2ccccc2-c2ncccn2)cc1`, the Inhibition is -5.33%.
On to `Clc1cc(Br)cc(Cl)c1-c1ccccc1Nc1ccccc1`, for which the Inhibition is recorded as -16.59%.
Consider `CC[C@@H](Nc1ccccc1-c1c(Cl)cc(Br)cc1Cl)c1ccccc1`, for which the Inhibition is on record as -6.43%.
As to `Cc1ccccc1Nc1ccccc1-c1ccc([N+](=O)[O-])cc1`, the Inhibition is -14.6%.
For the molecule `Cc1cccc(C)c1Nc1ccccc1-c1ccccc1[N+](=O)[O-]`, the Inhibition is recorded as -17.42%.
As for `O=[N+]([O-])c1ccc(-c2c(Nc3ccccc3)ccc3ccccc23)cc1`, the Inhibition is -17.68%.
As to `O=[N+]([O-])c1ccc(-c2ccccc2Nc2ccccc2)cc1F`, the Inhibition is reported as -12.31%.
As to `COc1cc([N+](=O)[O-])ccc1-c1ccccc1Nc1ccccc1`, the Inhibition is recorded as -16.17%.
Take `O=[N+]([O-])c1ccc(-c2ccccc2Nc2ccccc2Br)cc1`: the Inhibition was -12.36%.
Turning to `Cc1cc(C)c(Nc2ccccc2-c2ccc([N+](=O)[O-])cc2)c(C)c1`, the Inhibition is on record as -1.52%.
The value for `O=[N+]([O-])c1ccc(-c2ccccc2Nc2ccccc2)cc1C(F)(F)F` was -6.23%.
For `O=[N+]([O-])c1cc(Cl)c(-c2ccccc2Nc2ccccc2)c(Cl)c1`, the Inhibition is reported as -19.92%.
Regarding `CC(=O)c1ccc(-c2ccccc2Nc2ccccc2)cc1`, the Inhibition is -10.5%.
As for `COc1cccc(Nc2ccccc2)c1-c1ccc([N+](=O)[O-])cc1`, the figure is -8.08%; as for `O=[N+]([O-])c1ccc2c3ccccc3n(-c3ccccc3)c2c1`, -19.11%; as for `O=[N+]([O-])c1ccc(-c2ccccc2N(Cc2ccccc2)c2ccccc2)cc1`, -12.85%.
On to `O=[N+]([O-])c1ccc(-c2ccccc2Nc2ccccc2)c(Cl)c1`, for which the Inhibition is given as -16.95%.
Regarding `COc1cc([N+](=O)[O-])ccc1-c1c(Nc2ccccc2)cccc1OC`, the Inhibition is on record as -7.71%.
As for `O=[N+]([O-])c1ccc(-c2c(Nc3ccccc3)cccc2-c2ccccc2)cc1`, the figure is -9.65%.
As for `O=[N+]([O-])c1ccc(-c2ccccc2Nc2ccccc2)cc1`, the Inhibition turned out to be 1.78%.
On to `N#Cc1ccc(-c2ccccc2Nc2ccccc2)cc1`, for which the Inhibition is given as -20.05%.
As for `Cc1cc([N+](=O)[O-])ccc1-c1ccccc1N(C)c1ccccc1`, the figure is -0.95%; as for `COc1cccc(Nc2ccccc2)c1-c1c(Cl)cc(Br)cc1Cl`, -17.38%.
With `COc1ccc(Nc2ccccc2-c2ccc([N+](=O)[O-])cc2)cc1`, the Inhibition is listed as -10.99%.
Take `CN(c1ccccc1)c1ccccc1-c1ccc([N+](=O)[O-])cc1`: the Inhibition was -8.77%.
